Laboratory results published in the supplement of paper PMC3724861.
Some of the results follow.

System: T1, Caupolican (Caup) homeodomain DNA-binding domain
T1 sequence: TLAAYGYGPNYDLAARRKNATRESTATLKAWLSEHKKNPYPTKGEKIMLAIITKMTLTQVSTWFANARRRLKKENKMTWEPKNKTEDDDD
Assay: PBM E-score (8-mer, recovered from the published 9-mer minima) (E-score (dimensionless, -0.5 to 0.5)); Drosophila protein; higher = stronger relative binding preference, active = 0.31 or more
Outline: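 Caup's homeodomain DNA-binding domain (residues 214-303) was produced by in vitro transcription and translation and applied at 100 nM to custom-designed protein binding microarrays. Each value is an enrichment score giving relative binding preference for a short DNA word; higher means stronger. Published 9-mer scores were the minimum of their two constituent 8-mer scores, and the 8-mer values were recovered from those minima. A cutoff of 0.31 marks candidate binding sequences.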

Sequence | PBM E-score
GACCTACA | inactive: 0.0736
GACACGGA | inactive: 0.286
CCAATACG | inactive: 0.0979
AGAACGCT | inactive: -0.0866
AAGCGTGG | inactive: -0.168
TGCTCAAA | inactive: 0.0435
CAACGAGA | inactive: 0.107
CCGCGGTA | inactive: -0.12
GCTCTTAC | inactive: 0.0957
CACCACGC | inactive: -0.188
CATAAGCC | inactive: -0.032
CAACGAGG | inactive: 0.0398
CTGGCATA | inactive: -0.0145
TCTAGTCA | inactive: 0.0786
GTACATGA | active: 0.435
GAGGGTCA | inactive: -0.163
AAAAGAGT | inactive: -0.0158
AGAGAGGC | inactive: -0.207
CAGCCAGA | inactive: -0.146
GAAAGCTC | inactive: -0.111
CGTATGCA | inactive: 0.00595
CCCATACG | inactive: -0.0928
ACCGATTG | inactive: 0.149
TAGACAGA | inactive: 0.087
GTAACGAA | inactive: 0.106

Sequence | PBM E-score
AACATGCT | active: 0.376
AGATTCAA | inactive: 0.106
CAATATTG | ≥ 0.264
CGGGGCCC | inactive: -0.257
AATTGTCA | inactive: 0.25
ACAGTTGG | inactive: 0.0397
AAGCATAG | inactive: 0.0253
AATGTTTG | inactive: 0.244
GCCTAGTA | inactive: -0.0206
CATTATAA | inactive: 0.00764
AGAGTTAC | inactive: 0.0703
GATGGAAC | inactive: 0.0718
GCAAATAC | inactive: 0.0617
CCCTCCTA | inactive: -0.135
AATGCTCT | inactive: 0.00353
ATATCGAG | inactive: 0.0301
ACGAAGCA | inactive: 0.0439
ATTATCGA | inactive: 0.0755
GGGGTCGA | inactive: -0.151
CATCATAC | inactive: 0.198
GACTGAGC | inactive: -0.135
ATCCAACC | inactive: -0.0224
GAAGAGGC | inactive: -0.167
AGCGTAGG | inactive: -0.182
GCGGTCCA | inactive: -0.206

Sequence | PBM E-score
GAGGTCAA | inactive: -0.0334
CCGGTTCA | inactive: -0.146
AAACCGGT | inactive: -0.109
CGTCCGGC | inactive: -0.219
ACACTTGC | inactive: 0.127
GTATAACA | active: 0.338
AGACGGCT | inactive: -0.134
GCCGGGTA | inactive: -0.161
AACATCCT | inactive: 0.261
GCTGGAGA | inactive: -0.19
GATGCCGA | inactive: -0.0496
GGCGTGAC | inactive: -0.091
GATGCAAA | inactive: 0.00966
CGAGCTAA | inactive: -0.095
GCTAATGA | inactive: 0.0156
AGGCCTAT | inactive: -0.0555
GCTGAGAC | inactive: -0.0615
GTTCACAA | inactive: 0.15
CCTTAGAA | inactive: -0.0668
AAAATGCC | inactive: -0.0299
AAATGGTA | inactive: 0.174
CTTGATCC | inactive: -0.0897
AACCCGTA | inactive: -0.0357
AAGGAGTC | inactive: -0.0913
CTGAGCGC | inactive: -0.211

Sequence | PBM E-score
GATAACTA | inactive: 0.192
CTAGCATA | inactive: 0.0224
ATGGTTCA | inactive: 0.0836
ATTGACAC | inactive: 0.237
GCTCGCCC | inactive: -0.171
AAATCTGC | inactive: 0.0276
ACTGATAC | inactive: 0.21
CGGAAGGA | inactive: -0.155
AATCACAT | inactive: 0.248
AAGTACTT | inactive: 0.0372
AGGTCGTC | inactive: -0.113
TACGTCTA | inactive: 0.0532
GGCCGGGA | inactive: -0.252
CAGATAGC | inactive: -0.0657
AGATCACT | inactive: 0.103
GGTTCTTA | inactive: 0.045
ACACAGCC | inactive: 0.0493
GCTGCGAA | inactive: -0.105
CGACACAA | inactive: 0.21
CAGTTGAG | inactive: -0.049
GACTCTCA | inactive: -0.025
GCCTCGGA | inactive: -0.217
GTGCACCA | inactive: -0.0612
ACATAAGC | inactive: 0.144
CCATGATA | inactive: 0.0656

Sequence | PBM E-score
AGAGACCT | inactive: -0.165
ATACTCAG | inactive: 0.0297
GGATATAA | inactive: 0.0885
CCTACCCA | inactive: -0.131
CATTGGCC | inactive: -0.187
ATGGTCGC | inactive: -0.0587
GATTCGGA | inactive: 0.0364
ACGTGTCG | inactive: 0.301
GCTAGGAC | inactive: 0.00541
TCCCTCAA | inactive: -0.141
ACTTTTAG | inactive: 0.0205
TGTTAACA | active: 0.371
CATCTAGA | inactive: 0.0463
CCACGAAC | inactive: 0.0437
ACATGACG | inactive: 0.297
CCAGGACG | inactive: -0.075
GCAGGTCC | inactive: -0.109
ATTGTAAC | inactive: 0.308
CGCAGTGA | inactive: -0.066
CAGGACCC | inactive: -0.184
CACCACTA | inactive: 0.0556
GTAGATAC | inactive: 0.134
ATGTTATG | active: 0.338
ACCACAGT | ≥ 0.0797
CGCAATGC | inactive: -0.0669

Sequence | PBM E-score
TCAAAGGA | inactive: -0.0014
GAGTGCAA | inactive: 0.065
AAGACGGC | inactive: -0.148
ACCGTTCT | inactive: -0.084
CTTAGTTC | inactive: -0.0758
GAATCTAC | inactive: 0.0645
GAGAGCAC | inactive: -0.144
GACAGTAC | inactive: 0.177
CGAGAACC | inactive: -0.054
CCCCTAGG | inactive: -0.286
CTAAGAGA | inactive: -0.0459
CCAGACTC | inactive: -0.0483
TATAGTCA | inactive: 0.141
GTATGGTA | inactive: 0.204
AAGCTGAG | inactive: -0.0897
GCTAGATA | inactive: 0.0474
ACTAAAAG | inactive: -0.0855
GACACGCA | ≥ 0.284
AAGTTACG | inactive: 0.0835
GCAGAAAC | inactive: -0.00268
AGATCGCG | inactive: -0.076
CTTTTGCC | inactive: -0.0326
GAGACCCC | inactive: -0.188
ATTTCCTG | inactive: 0.0432
GGACAGCA | inactive: 0.0565

Sequence | PBM E-score
CGAATGAA | inactive: 0.00722
CATGATAC | inactive: 0.266
CTGGCTGC | inactive: -0.18
CGTCCCTA | inactive: -0.117
CGAGATTC | inactive: -0.01
CCAAGTAG | inactive: -0.0584
CCTGGTCG | inactive: -0.0997
ATATACTG | inactive: 0.156
ATTTTTTC | inactive: -0.0311
AGGCAAGC | inactive: -0.0636
ACTATGGA | inactive: 0.0763
AAAGTGTC | inactive: 0.0956
CCCGTCGA | inactive: -0.142
GATAAAAA | inactive: 0.046
GATCAGTA | inactive: 0.114
AATTTTGA | inactive: 0.115
CCAAGGAA | inactive: -0.0909
ACTGCTAG | inactive: -0.111
AGGGGGGG | inactive: -0.439
AGACTTTG | inactive: -0.0135
AAACACCC | inactive: 0.0513
CCCGTCGC | inactive: -0.208
ACGCCGGA | inactive: -0.134
ACGGAATA | inactive: 0.0566
GCCACTCC | inactive: -0.175

Sequence | PBM E-score
AACGTTTA | inactive: 0.001
GTACGATA | inactive: 0.204
AGAGCTTG | inactive: 0.0254
ATGAGAGG | inactive: -0.154
ATTCACAG | inactive: -0.00235
AGCCCGTA | inactive: -0.102
GTTGCACA | inactive: 0.182
AAATCCAC | inactive: 0.00025
AAACATGT | active: 0.443
CGTCATAA | inactive: 0.081
CCAACTGA | inactive: 0.00487
CTGCTTCA | inactive: -0.169
CCCCAAGG | inactive: -0.244
CAAAATTA | inactive: 0.0569
CGTACTCA | inactive: 0.00173
CAAGACAC | inactive: 0.21
CCGGCGCA | inactive: -0.184
TCAAGCGA | inactive: -0.0899
CGCGACGC | inactive: -0.147
ATTGGTCG | inactive: -0.00807
GATTACAA | active: 0.314
GGGACAGA | inactive: -0.0214
CCCCCCAG | inactive: -0.397
AGCCGGTA | inactive: -0.0702
CGCTGTGA | inactive: -0.0259

Sequence | PBM E-score
ACAATGAA | inactive: 0.197
GGCTTGAC | inactive: -0.139
CTCGTGTA | inactive: 0.27
GGAGGTAA | inactive: -0.008
GCGATCGC | inactive: 0.0258
ATGTGTAG | inactive: 0.193
ACCTCATA | inactive: 0.01
AGAGCTCA | inactive: -0.157
ATCTAGAG | inactive: -0.00866
AGGCCCCG | inactive: -0.287
ATCTATGA | ≥ 0.132
CCTAGACA | inactive: -0.00965
ATACCTGA | ≥ 0.157
CTCATAAA | inactive: 0.05
CGATTTGC | inactive: 0.00382
CCTCGCGC | inactive: -0.142
AGTGCAAT | inactive: 0.0896
GGTCATGA | inactive: 0.0711
CGAAACTA | inactive: 0.0861
CGGTCCTC | inactive: -0.218
CAGGTGAC | inactive: 0.0172
ACATCCCG | inactive: 0.181
AGACGCGA | inactive: -0.0344
